# Laboratory results reported in a collection of fitness landscapes (doi:10.1126/science.1257360).
# This is one part of the list.
# B1: PhoQ; a variant is named by its letters at X, in order, P23837 (parent)
# chain: MKKLLRLFFPLSLRVRFLLATAAVVLVLSLAYGMVALIGYSVSFDKTTFRLLRGESNLFYTLAKWENNKLHVELPENIDKQSPTMTLIYDENGQLLWAQRDVPWLMKMIQPDWLKSNGFHEIEADVNDTSLLLSGDHSIQQQLQEVREDDDDAEMTHSVAVNVYPATSRMPKLTIVVVDTIPVELKSSYMVWSWFIYVLSANLLLVIPLLWVAAWWSLRPIEALAKEVRELEEHNRELLNPATTRELTSLVRNLNRLLKSERERYDKYRTTLTDLTHSLKTPLXXLQXXLRSLRSEKMSVSDAEPVMLEQISRISQQIGYYLHRASMRGGTLLSRELHPVAPLLDNLTSALNKVYQRKGVNISLDISPEISFVGEQNDFVEVMGNVLDNACKYCLEFVEISARQTDEHLYIVVEDDGPGIPLSKREVIFDRGQRVDTLRPGQGVGLAVAREITEQYEGKIVAGESMLGGARMEVIFGRQHSAPKDE
# Variants of: B1
# Assay: enrichment ratio after two sorts for PhoP signalling (ratio (wild type AVST 3.29)); higher = more functional
# Conditions: with PhoP (E. coli)
row,Variant,enrichment ratio
1,GVKN,≤ 0.25
2,QQAG,≤ 0.25
3,PWIE,≤ 0.25
4,TSPG,≤ 0.25
5,SDNW,≤ 0.25
6,FHHC,≤ 0.25
7,LYWS,≤ 0.25
8,CLPT,≤ 0.25
9,ECKD,≤ 0.25
10,VEFY,≤ 0.25
11,WGNL,≤ 0.25
12,NTHA,≤ 0.25
13,SCWD,≤ 0.25
14,LGRF,≤ 0.25
15,EWVL,≤ 0.25
16,QTDI,7.15
17,MDMK,≤ 0.25
18,TLVC,≤ 0.25
19,TSRK,≤ 0.25
20,FLFD,≤ 0.25
21,QTHV,≤ 0.25
22,WQLF,≤ 0.25
23,AHTA,≤ 0.25
24,NDLL,≤ 0.25
25,FTEH,≤ 0.25
26,QIWL,≤ 0.25

row,Variant,enrichment ratio
1,EDIA,≤ 0.25
2,FMAC,≤ 0.25
3,SADM,≤ 0.25
4,AQYS,≤ 0.25
5,FSRC,≤ 0.25
6,QSIC,≤ 0.25
7,WNRF,≤ 0.25
8,RNPA,≤ 0.25
9,TDMG,≤ 0.25
10,WRAK,≤ 0.25
11,HNGN,≤ 0.25
12,MNPG,≤ 0.25
13,TYDK,≤ 0.25
14,VVSQ,≤ 0.25
15,AVPM,1.53
16,RLAG,≤ 0.25
17,PKII,≤ 0.25
18,PFLE,≤ 0.25
19,DQRW,≤ 0.25
20,YNFA,≤ 0.25
21,KYFC,≤ 0.25
22,RFVL,≤ 0.25
23,FGFV,≤ 0.25
24,WSTR,≤ 0.25
25,QDYR,≤ 0.25
26,EQGP,≤ 0.25

row,Variant,enrichment ratio
1,DAPN,≤ 0.25
2,DIIK,≤ 0.25
3,HIMW,≤ 0.25
4,EMVQ,≤ 0.25
5,YVWW,≤ 0.25
6,STNS,0.68
7,RKAI,≤ 0.25
8,MYLK,0.845
9,KLFT,≤ 0.25
10,AVDH,≤ 0.25
11,NWIQ,≤ 0.25
12,YKKG,≤ 0.25
13,SEHR,≤ 0.25
14,DCDS,≤ 0.25
15,IQVW,≤ 0.25
16,PHFM,≤ 0.25
17,RHSC,≤ 0.25
18,YIAV,0.757
19,ATFC,≤ 0.25
20,HASF,≤ 0.25
21,FIIH,≤ 0.25
22,YRFF,≤ 0.25
23,VGDI,≤ 0.25
24,YPHY,≤ 0.25
25,MCKY,≤ 0.25
26,YSHE,≤ 0.25

row,Variant,enrichment ratio
1,LVKW,4.52
2,GFLF,≤ 0.25
3,QSYK,≤ 0.25
4,LCVC,≤ 0.25
5,YLHH,≤ 0.25
6,ADPY,≤ 0.25
7,VTVK,≤ 0.25
8,VVVY,≤ 0.25
9,VGSS,≤ 0.25
10,FNFY,≤ 0.25
11,SPMW,≤ 0.25
12,FRCF,≤ 0.25
13,GEDF,≤ 0.25
14,KLDL,≤ 0.25
15,IWIV,≤ 0.25
16,LKPM,≤ 0.25
17,SGRI,≤ 0.25
18,IPAL,≤ 0.25
19,LHPV,≤ 0.25
20,HVLM,≤ 0.25
21,ACAM,30.7
22,EIIF,≤ 0.25
23,FDFG,≤ 0.25
24,LIFM,≤ 0.25
25,FHVK,≤ 0.25
26,TMWN,≤ 0.25

row,Variant,enrichment ratio
1,WMCF,≤ 0.25
2,DASD,≤ 0.25
3,IDES,≤ 0.25
4,IFEW,≤ 0.25
5,MNAK,≤ 0.25
6,FRRE,0.446
7,RNSS,≤ 0.25
8,HDDK,≤ 0.25
9,NQEM,≤ 0.25
10,EILR,≤ 0.25
11,NCRV,≤ 0.25
12,AAMV,1.6
13,EHNT,≤ 0.25
14,NYNQ,≤ 0.25
15,PIVL,≤ 0.25
16,QPCM,≤ 0.25
17,MKER,≤ 0.25
18,GWPD,≤ 0.25
19,FTYG,≤ 0.25
20,EIIC,≤ 0.25
21,ISGW,≤ 0.25
22,NNMF,≤ 0.25
23,DCHC,≤ 0.25
24,DHDM,≤ 0.25
25,TKQV,4.75
26,VPWV,≤ 0.25

row,Variant,enrichment ratio
1,RMCG,≤ 0.25
2,ECHN,≤ 0.25
3,TKSC,5.09
4,RILP,≤ 0.25
5,RNYV,≤ 0.25
6,HGDW,≤ 0.25
7,RSGA,≤ 0.25
8,MDIA,≤ 0.25
9,FEEF,≤ 0.25
10,SWQK,≤ 0.25
11,IDTP,≤ 0.25
12,WSWW,≤ 0.25
13,NTHL,≤ 0.25
14,WQGV,≤ 0.25
15,NNRE,≤ 0.25
16,SIYT,≤ 0.25
17,WLPE,≤ 0.25
18,NRSG,≤ 0.25
19,YFQW,≤ 0.25
20,WNRN,≤ 0.25
21,NVRK,≤ 0.25
22,HIMC,48.5
23,PWTT,≤ 0.25
